In the supplement of paper PMC10498489:
Among all 2,300 compounds or so, about 330 (14%) showed activity.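 The calls were made as follows: active = median modified Z-score above 1.96; inactive = 1.96 or below.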 Only a part is listed here, and it is no random draw.

tested on: HepG2 Srxn1-GFP reporter cells (+30 nM CDDO-Me); test: Srxn1-GFP intensity median modified Z-score relative to plate median; higher = stronger NRF2 / oxidative stress reporter activation, active = hit call of the paper; settings: 10 µM; exposure time: 24h
In short: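 Per-cell cytoplasmic GFP was measured on confocal images of formaldehyde-fixed, Hoechst-stained HepG2 Srxn1-GFP BAC reporter cells, excluding images with fewer than 100 cells. Before this, the cells (20,000 per well, 96-well plates) were co-exposed for 24 h to compound at 10 μM and an NRF2 activator at 30 nM with ≤0.1% DMSO, in three replicate plates. Each value is the median over replicates of the per-plate modified Z-score of GFP intensity. That score was scaled with 1.4826 × median absolute deviation.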

Row | SMILES | Srxn1-GFP intensity median modified Z-score
1 | CN(C)C(=O)Oc1ccc[n+](C)c1 [euspeclibcmpd551] | inactive: 0.0507
2 | NCCCNCCSP(=O)(O)O [euspeclibcmpd523] | inactive: 0.0705
3 | CC(C)c1cc2c(c(O)c1O)[C@@]1(C(=O)O)CCCC(C)(C)C1CC2 (stereo partly drawn) [euspeclibcmpd2302] | active: 5.33
4 | Nc1ccc([As](=O)(O)O)cc1 [euspeclibcmpd2461] | active: 11.1
5 | CCCCCC1C(=O)O[C@H](C)C(NC(=O)c2cccc(NC=O)c2O)C(=O)O[C@@H](C)[C@@H]1OC(=O)CC(C)C (stereo partly drawn) [euspeclibcmpd1446] | active: 39.4
6 | Cc1nc(=O)c(C[n+]2csc(CCO)c2C)c[nH]1 [euspeclibcmpd1800] | inactive: 0.155
7 | NC(=O)CN1CCCC1=O [euspeclibcmpd441] | inactive: -0.175
8 | COc1cc2c(cc1OC)C(C)NCC2 (stereo not drawn) [euspeclibcmpd1553] | inactive: -0.0767
9 | CC(C)c1c(CN(C)C(C)Cc2ccccc2)n(C)n(-c2ccccc2)c1=O (stereo not drawn) [euspeclibcmpd1220] | inactive: -0.423
10 | O=P1(NCCCl)OCCCN1CCCl (stereo not drawn) [euspeclibcmpd803] | inactive: -0.375
11 | CCC(C)C(=O)O[C@@H]1C[C@@]2(C)[C@H](c3ccoc3)OC(=O)CC23OC2(C)OC34[C@H](OC(=O)C(C)C)[C@@]3(O)[C@@H](OC(=O)C5(C)OC5C)[C@@]5(C)C[C@]3(O)[C@@](C)([C@H]5CC(=O)OC)C14O2 (stereo partly drawn) [euspeclibcmpd1627] | inactive: 0.307
12 | NCCc1c[nH]c2ccccc12 [euspeclibcmpd1506] | inactive: -0.231
13 | Clc1ccc(C(OCCN2CCCCC2)c2ccccc2)cc1 (stereo not drawn) [euspeclibcmpd1155] | inactive: -0.521
14 | O=C1CC2OCC=C3CN4CC[C@]56c7ccccc7N1C5[C@H]2[C@H]3CC46 (stereo partly drawn) [euspeclibcmpd327] | inactive: -0.00366
15 | CC1[C@H](C)OC(=O)CC(O)CC(O)CC(O)CCC(O)C(O)C[C@]2(O)CC(O)C(C(=O)O)C(CC(OC3O[C@H](C)[C@@H](O)[C@H](N)[C@@H]3O)/C=C/C=C/C=C/C=C/CC/C=C/C=C/[C@H](C)[C@H]1O)O2 (stereo partly drawn) [euspeclibcmpd218] | inactive: 0.964
16 | NCCc1c[nH]c2ccc(O)cc12 [euspeclibcmpd2141] | inactive: -0.0129
17 | CCN(C(C)=O)c1cccc(-c2ccnc3c(C#N)cnn23)c1 [euspeclibcmpd886] | inactive: -0.312
18 | CC1=C2CCC3C(CC[C@]4(C)C(=O)CCC34)[C@@]2(C)CCC1=O (stereo partly drawn) [euspeclibcmpd1163] | inactive: -0.15
